The values below come from PubChem BioAssay AID1745853 (National Center for Advancing Translational Sciences (NCATS), 2022).

This is one part of the list. Further columns of the screen follow, without active or inactive calls.

What all share (assay): Primary Screen for Target Class Profiling of Small Molecule Inhibitors of Methyltransferases
For assay [1], the target named is Glycine N-methyltransferase (Homo sapiens) (UniProt Q14749). The following applies: purified enzyme, MTase-Glo SAH luminescence; measured here: GNMT inhibition; at 40 µM; stronger effect = lower value. The procedure, abridged: (§1)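 Each enzyme was assayed with SAM and its substrate. SAH formation detected by MTase-Glo luminescence; single-point 40 uM screen[…].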

Assay [2] concerns the target Guanidinoacetate N-methyltransferase (Homo sapiens) (UniProt Q14353). The following applies: purified enzyme, MTase-Glo SAH luminescence; measured here: GAMT inhibition; at 40 µM; stronger effect = lower value. In outline: as §1
Assay [3] addresses Histamine N-methyltransferase (Homo sapiens) (UniProt P50135). The following applies: purified enzyme, MTase-Glo SAH luminescence; measured here: HNMT inhibition; at 40 µM; stronger effect = lower value. In outline: as §1
For assay [4], the target named is Nicotinamide N-methyltransferase (Homo sapiens) (UniProt P40261). The following applies: purified enzyme, MTase-Glo SAH luminescence; measured here: NNMT inhibition; at 40 µM; stronger effect = lower value. The procedure, abridged:
as §1

Assay [5] has as its target Phenylethanolamine N-methyltransferase (Homo sapiens) (UniProt P11086). The following applies: purified enzyme, MTase-Glo SAH luminescence; measured here: PNMT inhibition; at 40 µM; stronger effect = lower value. The procedure, abridged: as §1
On the % scale 0 is the no-effect control and ±100 the full control effect.

For the compound `O=C1CCN(S(=O)(=O)c2ccccc2)CCCN(C(=O)c2c[nH]c3ccccc23)CCN1`, the activity change, negative = inhibition is -8.31% in assay [1]; -6.4% in assay [2]; -3.28% in assay [3]; -15.8% in assay [4]; -7.4% in assay [5].
As for `COc1ccccc1-c1[nH]nc2ncc(C(=O)N3C[C@@H](C)O[C@@H](C)C3)nc12`, the activity change, negative = inhibition in assay [1] is -32.1%; in assay [2], -24.2%; in assay [3] it was -43.3%; in assay [4], -27.2%; in assay [5], -20.1%.
Taken in the same sequence, the figures for `COC(=O)CC[C@@H](C)[C@H]1CC[C@H]2[C@@H]3CC(=O)[C@H]4C[C@H](OC(C)=O)CC[C@]4(C)[C@H]3CC[C@]12C` were 1.79%, 0.796%, 7.5%, -9.28% and 1.76%.
Taken in the same sequence, the figures for `COc1cccc(CN2C(=O)c3cc4occc4n3CC2(C)C(=O)NC2CCCCCC2)c1OC` (stereo not given) were 3.58%, 0%, 4.25%, -2.53% and -1.72%.
Taken in the same sequence, the figures for `Cc1ccccc1Cn1nc2n(Cc3ccccc3)c(=O)c3ccccc3n2c1=O` were -3.48%, -1.15%, 1.62%, -8.36% and -3.95%.
As for `COc1ccccc1-c1ccc(C(=O)N2CCC(NC(=O)Cc3ccc(F)cc3)CC2)cc1`, the activity change, negative = inhibition in assay [1] was -8.19%; in assay [2], -6.12%; in assay [3], -2.48%; in assay [4] it was -12.1%; in assay [5] it was -9.39%.
Taken in the same sequence, the figures for `O=c1c2ccccc2n2c(SCc3ccc(F)cc3)nnc2n1Cc1ccccc1` were 7.68%, 0%, 4.12%, 3.64% and 5.53%.
Taken in the same sequence, the figures for `O=C(NCC1CN(Cc2cccc(O)c2)CC12CN(c1ccccc1)C2)c1ccccc1` (stereo not given) were -11.9%, -11.6%, -28.5%, -14.7% and -11.1%.
Taken in the same sequence, the figures for `O=C(/C=C/c1ccc(O)cc1)OC1[C@H](O)CC(O)(C(=O)O)C[C@H]1O` (stereo not given in full) were -1.68%, -19.1%, -4.15%, -29.6% and -8.41%.
Turning to `CC(=O)C=C=C1C(C)(C)CC(O[C@@H]2O[C@H](CO)[C@@H](O)[C@H](O)[C@H]2O)CC1(C)O` (stereo not given in full), the activity change, negative = inhibition was 0.333% in assay [1]; 3.78% in assay [2]; 4.81% in assay [3]; -7.17% in assay [4]; -2.14% in assay [5].
Taken in the same sequence, the figures for `CCNC(=O)c1noc(-c2cc(C(C)C)c(O)cc2O)c1-c1ccc(CN2CCOCC2)cc1` were -5.86%, -1.37%, -4.24%, -14.5% and -4.85%.
In the case of `C=C1CC/C=C(/CO)C(=O)C[C@@H]2[C@@H]1C[C@@]2(C)COC(C)=O`, the activity change, negative = inhibition in assay [1] is 1.86%; in assay [2], 6.92%; in assay [3] it was 6.41%; in assay [4], -9.13%; in assay [5], 1.02%.
For the compound `COc1ccc(CC2CN(Cc3cccc(-n4cccn4)c3)CCO2)cc1` (stereo not given), the activity change, negative = inhibition in assay [1] is -2.47%; in assay [2] it was 1.03%; in assay [3], 1.64%; in assay [4] it was -1.13%; in assay [5], -16%.
On to `CC1CCC(NC(=O)C2(C)Cn3c(ccc3-c3ccco3)C(=O)N2CCc2ccc(Cl)cc2)CC1` (stereo not given), for which the activity change, negative = inhibition in assay [1] is -2.86%; in assay [2] it was 4.93%; in assay [3], -0.275%; in assay [4], 0.556%; in assay [5], -1.46%.
Taken in the same sequence, the figures for `COc1ccccc1CCC(=O)N1c2ccccc2CC1c1nc(C2CC2)no1` (stereo not given) were -1.66%, -1.28%, 2.35%, -7.7% and -2.61%.
As for `COc1ccc2cc3n(c2c1)CC(C)(C(=O)NCC1CCCO1)N(Cc1ccccc1Cl)C3=O` (stereo not given), the activity change, negative = inhibition in assay [1] was 2.71%; in assay [2], 0%; in assay [3], 5.87%; in assay [4] it was 2.91%; in assay [5], -1.42%.
Taken in the same sequence, the figures for `CCCN1C(=O)c2c(-n3cccc3)c3cc(C)ccc3n2CC1(C)C(=O)NCCC(C)C` (stereo not given) were -5.48%, 2.86%, -0.503%, -21.5% and -2.48%.
As for `Cc1ccc(-c2c(C(=O)CCl)n(CCCO)c3ncnc(N)c23)cc1`, the activity change, negative = inhibition in assay [1] was -31.2%; in assay [2], -32.6%; in assay [3], -5.1%; in assay [4], -42.3%; in assay [5] it was -16.8%.
`CCCn1c(=O)c2ccc(C(=O)NC(C)C)cc2n2c(=O)n(CC(=O)Nc3ccccc3CC)nc12`: the activity change, negative = inhibition in assay [1] is 4.48%; in assay [2], 0.111%; in assay [3] it was 0.408%; in assay [4] it was -5.1%; in assay [5] it was -0.881%.
Taken in the same sequence, the figures for `Cn1cc(CN2C[C@H](C(=O)Nc3ccn(C)n3)C[C@@H]2c2cccc(C(F)(F)F)c2)cn1` were -1.88%, 3.55%, 2.99%, -7.03% and 17.4%.
Taken in the same sequence, the figures for `COc1ccc(NC(=O)N2CCn3cccc3C2C)cc1OC` (stereo not given) were -13.6%, 1.16%, -13.8%, -14.3% and -12.1%.
Taken in the same sequence, the figures for `O=C(O)Cc1cccn1-c1ccc(Cl)cc1` were -4.55%, -4.29%, -0.602%, -6.37% and -2.08%.
Consider `CCN(CC)Cc1cnc2c(C(=O)NC3(C(N)=O)CCCC3)cnn2c1`, for which the activity change, negative = inhibition was -4.57% in assay [1]; -2.02% in assay [2]; -2.5% in assay [3]; -4.04% in assay [4]; -1.55% in assay [5].
Taken in the same sequence, the figures for `CC1(C)C(=O)N(Cc2ccccc2F)[C@H]2CN(C3CCOCC3)C[C@H]2[S+]1(=O)[O-]` were 0.243%, -1.49%, 2.06%, -0.374% and -2.57%.
Taken in the same sequence, the figures for `FC(F)(F)c1cccc(C2=NOC3(CCN(Cc4ccccc4)CC3)C2)c1` were -7.15%, -6.59%, -9.92%, -18.9% and -8.58%.
Taken in the same sequence, the figures for `COc1ccc(CN2CCC([C@@H]3CNC[C@H]3CO)CC2)c(Cl)c1OC` were -4.89%, 0.321%, -8.8%, 0.004% and -1.71%.
In the case of `CC(=O)OC[C@@]12C(=O)C[C@@H](C)[C@]3(C[C@@H](c4ccoc4)OC3=O)[C@H]1CC[C@H](OC(C)=O)[C@]21CO1`, the activity change, negative = inhibition was -2.39% in assay [1]; 3.6% in assay [2]; 0.531% in assay [3]; -8.71% in assay [4]; 3.29% in assay [5].
Taken in the same sequence, the figures for `CC(C)Cn1c(=O)c2cc(F)ccc2n2c(SCC(=O)Nc3ccc(F)cc3)nnc12` were 1.61%, 0%, 4.49%, -4.81% and 4.21%.
Taken in the same sequence, the figures for `CCCn1c(=O)c2ccc(Cl)cc2n2c(=O)n(CC(=O)Nc3ccc4c(c3)OCCO4)nc12` were -4.49%, -6.33%, 3.88%, -8.86% and -4.95%.
